# Test results reported in PubChem BioAssay AID686971 (National Center for Advancing Translational Sciences (NCATS), 2013).
# Hit rate of the full screen: of about 360,000 compounds, about 7,500 (2.1%) were called active. The inconclusive results got no clear call from the source; some entries with a clear call stand among them for comparison. The call rests on the fitted dose curve; in most records, active means well fitted cell-killing curve with a large enough effect; inconclusive means small, poorly fitted or top-dose-only effect, or effect the other way, or another doubt; inactive means no such curve, though single readings can be large or run the other way. No potency is given beside an inconclusive call; the fits are too rough.
# Assay: qHTS for induction of synthetic lethality in tumor cells producing 2HG: qHTS for the HT-1080-IDH1KD cell line;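 on activity, negative = toxicity: 0% = DMSO wells and -100% = cell-free medium wells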
# Settings: HT-1080 IDH1 knockdown viability, ATP luminescence, 48 h; activity, negative = toxicity: at 46.1 µM (top of the series) unless noted
# Method in brief: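 Cytotoxicity counter-line: IDH1KD HT-1080, 48 h, CellTiter-Glo. Curves classed by r2, magnitude and activity.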
# Potency means the concentration at half of the fitted maximal effect; tags describe the fitted curve by direction and shape.
SMILES,"activity, negative = toxicity",Potency
O=C(Cc1ccc(Cl)cc1)N/N=C1\CCCc2ccccc21,inactive: -4.01%,
CN1CCN(C2=C(NS(=O)(=O)c3ccccc3)C(=O)c3ccccc3C2=O)CC1,inactive: 1.58%,
COc1cccc(C2=Cc3ccc(F)cc3C(CC(C)=O)N2c2ccc(C#CC3(O)CCCCC3)cc2)c1 (configuration not stated),,"inconclusive [cytotoxic, single point]"
CN1CCCC1CCOC(C)(c1ccccc1)c1ccc(Cl)cc1 (configuration not stated),,"inconclusive [cytotoxic, single point]"
CCN(C(=O)COC(=O)Cn1c(=O)oc2ccccc21)c1c(N)n(Cc2ccccc2)c(=O)[nH]c1=O,inactive: -3.24%,
Cc1nc(N2CCc3ccccc3C2)[nH]c(=O)c1CCC(C)C,inactive: -3.11%,
COc1ccc(O)c(C2=Nc3ccccc3N=C(c3ccco3)C2)c1,,"inconclusive [cytotoxic, partial curve]"
CCn1c(=S)[nH]c2sc3c(c2c1=O)CCCCC3,,"inconclusive [cytotoxic, single point]"
Cc1nc(SCc2nc3ccccc3[nH]2)c2oc3ccccc3c2n1,,"inconclusive [cytotoxic, partial curve]"
CN(C)c1ccc(-c2[nH][nH]c(=O)c2NC(=O)c2ccc3ccccc3n2)cc1,,"inconclusive [cytotoxic, single point]"
CCOc1cc(CNc2ncn[nH]2)ccc1OCC(=O)NC(C)(C)C,inactive: 9.35%,
CCCCNc1c2c3c(cccc3n(C)c1=O)C(=O)c1ccccc1-2,,"inconclusive [cytotoxic, single point]"
N#Cc1ccc(NC(=O)Nc2ccc(Cl)cc2)cc1,,"inconclusive [cytotoxic, partial curve]"
CN(C)CCNS(=O)(=O)c1ccc(N2CCN(c3ccc(F)cc3)CC2)c([N+](=O)[O-])c1,,active: 18.4 µM
CCOC(=O)c1ccc(Nc2nnc(C(C)(C)C)c(=O)[nH]2)cc1,,"inconclusive [cytotoxic, single point]"
NC1=NC[C@H](c2ccccc2)N1CCc1cc(C(F)(F)F)cc(C(F)(F)F)c1,,"inconclusive [cytotoxic, single point]"
Cc1ccc(C(=O)/C=C/c2cc(Br)cc(Br)c2O)o1,,"inconclusive [cytotoxic, single point]"
Cc1cccc(C)c1OCc1nnc(SCC(=O)Nc2nccs2)n1-c1ccccc1,,"inconclusive [cytotoxic, partial curve]"
O=C(CN1C2CCCC1CC(NC(=O)c1ccccc1)C2)Nc1ccccc1 (configuration not stated),inactive: 1.52%,
CC[C@H](C)[C@H](NC(=O)c1ccc(Cl)cc1)C(=O)OCC(=O)c1ccc2c(c1)NC(=O)CO2,,"inconclusive [cytotoxic, single point]"
Cc1ccc(NC(=O)Nc2cccc([N+](=O)[O-])c2)cc1F,,active: 11.6 µM
O=c1c2cc(F)ccc2sn1-c1ccccc1,,"inconclusive [cytotoxic, single point]"
CC(C)CCNC(=O)CCCc1ccccc1,inactive: 2.18%,
NC1=NC2=C(CCCC2)C2(CCCCC2)S1,,"inconclusive [cytotoxic, single point]"

SMILES,"activity, negative = toxicity",Potency
C/C(=N\NC(=O)c1ccc2c(c1)OCO2)c1cccnc1,,"inconclusive [cytotoxic, single point]"
COc1ccc(C)c2sc(N(CCCN(C)C)C(=O)c3ccc(S(=O)(=O)N4CCc5ccccc5C4)cc3)nc12,,"inconclusive [cytotoxic, single point]"
C[C@@H]1CC=C[C@H]2[C@H]1C(=O)N(Cc1ccccc1)[C@H]2c1ccc(F)c(/C=C/c2ccccc2)c1,,"inconclusive [cytotoxic, single point]"
O=c1c2ccccc2sn1-c1nccs1,,"inconclusive [cytotoxic, single point]"
Cc1cccc(NC(=O)c2ccc(Cl)c(S(=O)(=O)N3CCc4ccccc43)c2)n1,,"inconclusive [cytotoxic, single point]"
Cc1c(Cc2ccc3c(c2)OCO3)sc(NC(=O)c2ccccc2)c1C(N)=O,,"inconclusive [cytotoxic, single point]"
COc1ccc(C(=O)C2CCN(C(=O)c3ccc(OC)cc3)CC2)cc1,,"inconclusive [cytotoxic, partial curve]"
Cn1c(NC(=O)c2cccnc2)nc2ccccc21,inactive: -4.53%,
O=C(CNc1ccc(Br)cc1)c1ccc(O)cc1,inconclusive: -16.7% [cytotoxic],
CC1(C)Cc2c(ccc3ccccc23)/C(=C/C#N)N1,,"inconclusive [cytotoxic, single point]"
CCc1nc2c(OCC(=O)C(C)(C)C)cccn2c1N(C)C(=O)c1ccco1,,"inconclusive [rising, single point]"
COCCN(Cc1cc2cc(C)cc(C)c2nc1Cl)C(=O)Nc1ccccc1,,active: 7.08 µM
Cc1cc(C)n(-c2ccc(S(=O)(=O)N3CCCC3)cc2[N+](=O)[O-])n1,inactive: 8.56%,
COC(=O)c1c(NC(NC(=O)C(C)(C)C)C(Cl)(Cl)Cl)sc2c1CCC2 (configuration not stated),,"inconclusive [cytotoxic, single point]"
CC(=Nc1ccccc1)C1=C(O)C(Cc2cccc(F)c2)NC1=O (configuration not stated),,"inconclusive [cytotoxic, full curve, poor fit]"
COC(=O)c1cc2ccsc2n1Cc1nc(-c2ccc(OC)cc2)oc1C,,"inconclusive [cytotoxic, single point]"
COc1cccc2sc(NN)nc12,,"inconclusive [cytotoxic, partial curve]"
N#C/C(=C\c1c(Cl)cccc1Cl)c1nc2ccccc2o1,,"inconclusive [cytotoxic, full curve, poor fit]"
NC(=O)CCN1CCN(C(=O)c2ccc3nc(Cc4cccc(Cl)c4)oc3c2)CC1,inactive: 5.29%,
COC(=O)c1cccc(NC(=O)Nc2ccccc2OC)c1,inactive: -16.7%,
Brc1ccc2c(c1)-c1ccccc1C1=NCCN12,,active: 16.4 µM
COc1ccc(-n2c(N)c(C(=O)NCc3ccco3)c3nc4ccccc4nc32)cc1,,"inconclusive [cytotoxic, single point]"
Cc1ccc(-n2c(C)cc(/C=N/NC(=O)CN(c3ccc(C)cc3C)S(C)(=O)=O)c2C)cc1,,"inconclusive [cytotoxic, single point]"
CCOCc1c(C(=O)NC2=Nc3ccccc3NC(CC)=C2C(=O)OCC)oc2ccccc12,,"inconclusive [cytotoxic, partial curve]"

SMILES,"activity, negative = toxicity",Potency
COc1ccc(C2c3c(ncn(CCCO)c3=N)Oc3ccc4ccccc4c32)cc1 (configuration not stated),,active: 20.6 µM
Cn1c(=O)c2c(O)c(C=Nc3ccc(F)cc3)c(=O)n(C)c2n(C)c1=O,inactive: 17.9%,
OC(CNCCc1ccccc1)COc1ccc(OCC(O)CNCCc2ccccc2)cc1 (configuration not stated),,active: 23.1 µM
N#CC1=C(SCC(=O)Nc2ccccc2)NC(=O)CC1c1ccco1 (configuration not stated),,"inconclusive [cytotoxic, partial curve]"
CCCCn1c(SCc2nc3ccccc3s2)nc2cc(S(N)(=O)=O)ccc21,,"inconclusive [cytotoxic, single point]"
Cc1c(C(=O)NCCCN2CCCC2=O)oc2ccc(S(=O)(=O)N3CCOCC3)cc12,inactive: 18.2%,
COc1ccccc1CNS(=O)(=O)c1ccc2c(c1)CC(C)N2C(=O)C1CCC1 (configuration not stated),,"inconclusive [cytotoxic, single point]"
CCCCCCCCCCCCCCCCn1cc[n+](C)c1,,active: 20.6 µM
CCOc1ccc(C(=O)OCC(=O)N(Cc2ccccc2)Cc2ccccc2)cc1OC,inactive: -8.95%,
C=CCNC(=O)C1CCN(c2ccc(S(=O)(=O)N3CCOCC3)cc2Cl)CC1,inactive: -3.49%,
CCOC(=O)[C@]12CCCC=C1N(Cc1ccc(Cl)cc1Cl)C(=O)[C@H](CC(=O)N1CCCCC1)C2,,"inconclusive [cytotoxic, single point]"
O=C(Cc1cccs1)Nc1ccc(Cl)cc1,inactive: 14.6%,
N/C(=N\OC(=O)c1ccc(Cl)cc1)c1ccccn1,,"inconclusive [cytotoxic, single point]"
O=C(NC(c1ccc(F)cc1)c1cnccn1)C1CCN(CCOc2ccc(Cl)cc2Cl)CC1 (configuration not stated),,"inconclusive [cytotoxic, single point]"
Cc1ccc(NC(=O)Cn2c(O)c(N=NS(=O)(=O)c3ccc(C)cc3)c3ccccc32)cc1,inactive: -4.54%,
COc1cc(C2C(C#N)=C(N)N(c3sc4c(c3C#N)CCCC4)C3=C2C(=O)CC(C)(C)C3)cc(OC)c1OC (configuration not stated),,"inconclusive [cytotoxic, single point]"
Cn1c(SCC(=O)N2CCN(c3ccccc3)CC2)nnc1-c1ccco1,inactive: -0.471%,
CCN(CC)C(=O)c1sc(N)c(C(=O)OC(C)C)c1C,inactive: -2.44%,
CN1CCN(c2ccccc2NC(=O)c2sc3ccccc3c2Cl)CC1,,"inconclusive [cytotoxic, single point]"
CC(NC(=O)CCC(=O)NC(C)c1ccccc1)c1ccccc1 (configuration not stated),inactive: -2.13%,
CN(C)CCNC(=O)c1cc2cc(Br)ccc2oc1=O,inactive: 3.34%,
O=C(NNC(=O)c1ccccn1)c1ccc(OC(F)F)cc1,,active: 20.6 µM
CC(C)C(=O)NC(c1cccc([N+](=O)[O-])c1)c1ccc2cccnc2c1O (configuration not stated),,"inconclusive [cytotoxic, partial curve, poor fit]"
COc1ccc(N=c2cc(-c3ccc(OC)cc3)oc3ccccc23)cc1,,"inconclusive [cytotoxic, single point]"
